Test results taken from the supplement of paper PMC10126150.
Sequences with one replicate were seen in a single cluster, so their values are uncertain.
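Note: ATP exposure 15 min at 22 °C before imaging.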

What follows are sequences tested on ATP (assay: switch fluorescence ratio, 500 uM ATP over buffer (Cy3 cluster intensity, sum of 5 cycles each) (fold (ratio)); higher = stronger signal-on switching upon ATP binding; sequences stand for … in TCGTCGGCAGCGTCAGATGTGTATAAGAGACAGTTTTTTTTTTTTTTTTTTTTTTTTT…TC). Conditions: aptamer strand: ATP DNA aptamer (quencher-CACCTGGGGGAGTATTGCGGAGGAAGG + anchor), 100 nM annealed; ATP concentration: 500 uM; one replicate.
Procedure, shortened: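 Clusters carrying Cy3-labelled switching strands on a modified Illumina MiSeq flow-cell were annealed to 100 nM quencher-labelled ATP aptamer and imaged in selection buffer. They were imaged again after 15 min with 500 uM ATP at 22 °C, over five buffer/ATP cycles with NaOH stripping and re-annealing in between. For each cluster, the fluorescence ratio is the summed Cy3 intensity of the target cycles divided by that of the buffer cycles, averaged per switch-domain sequence. Clusters outside 100-1000 RFU were left out.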
For TGCAGAAGCG, the switch fluorescence ratio was 1.02. In the case of TGCAGAATCA, the switch fluorescence ratio is reported as 0.963. For TGCAGAATTG, the switch fluorescence ratio was 1. TGCAGACCGA was tested, and the switch fluorescence ratio was 1.07. With TGCAGCCTGT the switch fluorescence ratio was 1. Sequence TGCAGGATTA has a switch fluorescence ratio of 1.03. TGCAGGCAAC was tested, and the switch fluorescence ratio was 1.02. TGCATACACG showed a switch fluorescence ratio of 1.21. TGCATACCGG gave a switch fluorescence ratio of 1.02. TGCATAGCGG was tested, and the switch fluorescence ratio was 1.04. TGCATATCGC was tested, and the switch fluorescence ratio was 1.04. With TGCATCGACC the switch fluorescence ratio was 1.45. TGCATCTGT showed a switch fluorescence ratio of 1.01. TGCATGACTC was tested, and the switch fluorescence ratio was 1.76. TGCATGGAAG showed a switch fluorescence ratio of 1.01. TGCATTAGTA was tested, and the switch fluorescence ratio was 0.977. Sequence TGCATTCGCG has a switch fluorescence ratio of 1.03. In the case of TGCATTTCTA, the switch fluorescence ratio is reported as 1.01. TGCCACAACA was tested, and the switch fluorescence ratio was 1.02. Work on TGCCACATAT yielded a switch fluorescence ratio of 1.03. TGCCACTGAC was tested, and the switch fluorescence ratio was 1.33. TGCCACTTAA gave a switch fluorescence ratio of 1.07. In the case of TGCCAGCTCT, the switch fluorescence ratio is reported as 1.06. TGCCAGGCTT was tested, and the switch fluorescence ratio was 0.979. Work on TGCCAGTCGT yielded a switch fluorescence ratio of 1.03. TGCCCCGACT gave a switch fluorescence ratio of 0.998. TGCCCCGTCA was tested, and the switch fluorescence ratio was 0.997. TGCCCGTAGA showed a switch fluorescence ratio of 1. TGCCCTGGGG gave a switch fluorescence ratio of 1.1. Work on TGCCGACTGG yielded a switch fluorescence ratio of 1.01. TGCCGGGAG showed a switch fluorescence ratio of 1.01. TGCCGTAAAA showed a switch fluorescence ratio of 1.02. TGCCTAATGA was tested, and the switch fluorescence ratio was 1.05. Work on TGCCTATAAG yielded a switch fluorescence ratio of 0.995. For TGCCTATTCC, the switch fluorescence ratio was 1.1. With TGCCTGGACG the switch fluorescence ratio was 0.996. For TGCCTGGAT, the switch fluorescence ratio was 0.969. TGCCTTATGT showed a switch fluorescence ratio of 0.996. Work on TGCCTTGATA yielded a switch fluorescence ratio of 0.97. TGCCTTGTTT gave a switch fluorescence ratio of 0.99. Sequence TGCGAAATGG has a switch fluorescence ratio of 1.11. With TGCGAACAAA the switch fluorescence ratio was 1. With TGCGACTATC the switch fluorescence ratio was 1.07. TGCGACTTTA showed a switch fluorescence ratio of 1.06. With TGCGAGGTGT the switch fluorescence ratio was 1.01. With TGCGAGTAT the switch fluorescence ratio was 1.03. TGCGATAATA showed a switch fluorescence ratio of 1. In the case of TGCGATATGT, the switch fluorescence ratio is reported as 1.05. TGCGCCTAGC was tested, and the switch fluorescence ratio was 0.974. TGCGGAAACC gave a switch fluorescence ratio of 1.1. TGCGGAATTC showed a switch fluorescence ratio of 1.32. For TGCGGAGCTC, the switch fluorescence ratio was 1.06. With TGCGGATTGG the switch fluorescence ratio was 1.02. Sequence TGCGGCAGAA has a switch fluorescence ratio of 0.974. TGCGGCGGCG was tested, and the switch fluorescence ratio was 0.999. TGCGGCGGGA showed a switch fluorescence ratio of 0.966. Sequence TGCGGCGTCC has a switch fluorescence ratio of 1.03. TGCGGGAATG was tested, and the switch fluorescence ratio was 1. Work on TGCGGGACAA yielded a switch fluorescence ratio of 0.991. Work on TGCGGGCGAA yielded a switch fluorescence ratio of 0.977. With TGCGGTACTT the switch fluorescence ratio was 1.11. Sequence TGCGGTTTAC has a switch fluorescence ratio of 1.07. Work on TGCGTAACAG yielded a switch fluorescence ratio of 1.01. In the case of TGCGTACAT, the switch fluorescence ratio is reported as 1. TGCGTCGCAG gave a switch fluorescence ratio of 1.02. With TGCGTTCACG the switch fluorescence ratio was 0.979. In the case of TGCGTTCCCT, the switch fluorescence ratio is reported as 1.01. TGCTAACCAT was tested, and the switch fluorescence ratio was 0.989. Sequence TGCTAAGCCA has a switch fluorescence ratio of 1.06. TGCTACAGAA gave a switch fluorescence ratio of 1.04. TGCTACGTCT was tested, and the switch fluorescence ratio was 0.981. TGCTAGTAA was tested, and the switch fluorescence ratio was 1.01. TGCTATCTAG was tested, and the switch fluorescence ratio was 1.01. For TGCTCAAGAG, the switch fluorescence ratio was 1.03. With TGCTCACCTG the switch fluorescence ratio was 1.05. TGCTCATAGT gave a switch fluorescence ratio of 1.03. Sequence TGCTCCGGGC has a switch fluorescence ratio of 1.3. Sequence TGCTCGCGTT has a switch fluorescence ratio of 0.994. With TGCTCGTCCG the switch fluorescence ratio was 1. With TGCTCTGGCT the switch fluorescence ratio was 1.04. In the case of TGCTCTTAAT, the switch fluorescence ratio is reported as 1.01. With TGCTGAGCGA the switch fluorescence ratio was 1.07. For TGCTGAGTCA, the switch fluorescence ratio was 0.964. Work on TGCTGGAGGT yielded a switch fluorescence ratio of 1.01. For TGCTGGGCG, the switch fluorescence ratio was 0.944. For TGCTGGGTTC, the switch fluorescence ratio was 1.03. Work on TGCTGGTTTG yielded a switch fluorescence ratio of 1.02. TGCTGTAGTC gave a switch fluorescence ratio of 1.01. TGCTGTATAT was tested, and the switch fluorescence ratio was 0.999. TGCTGTGCCG was tested, and the switch fluorescence ratio was 1.07. Work on TGCTGTTGCG yielded a switch fluorescence ratio of 0.966. Sequence TGCTTAGCTG has a switch fluorescence ratio of 0.974. In the case of TGCTTATTGT, the switch fluorescence ratio is reported as 0.977. Work on TGCTTCGGGT yielded a switch fluorescence ratio of 0.989. Sequence TGCTTCTTAG has a switch fluorescence ratio of 1. For TGCTTGCGTG, the switch fluorescence ratio was 0.991. TGCTTGGTGG showed a switch fluorescence ratio of 0.99. With TGCTTTAAAT the switch fluorescence ratio was 1.02. In the case of TGCTTTAGAT, the switch fluorescence ratio is reported as 1.03. With TGCTTTAGCT the switch fluorescence ratio was 0.997. Sequence TGCTTTATT has a switch fluorescence ratio of 0.98. For TGCTTTGAG, the switch fluorescence ratio was 1.01. TGGAAAATTG gave a switch fluorescence ratio of 0.983. With TGGAAATCGA the switch fluorescence ratio was 0.997. Sequence TGGAAATGAA has a switch fluorescence ratio of 1.02. With TGGAACCGAC the switch fluorescence ratio was 2.3. Sequence TGGAACCGTC has a switch fluorescence ratio of 1.16. TGGAACGTAT gave a switch fluorescence ratio of 1. TGGAAGGCAA was tested, and the switch fluorescence ratio was 1. With TGGAATCGCT the switch fluorescence ratio was 0.944. Sequence TGGAATCTGT has a switch fluorescence ratio of 0.962. Sequence TGGACAAAGC has a switch fluorescence ratio of 0.933. Sequence TGGACAGGAT has a switch fluorescence ratio of 1. Work on TGGACCAACG yielded a switch fluorescence ratio of 1.09. TGGACGCCAT showed a switch fluorescence ratio of 1.03. TGGACGCTCT showed a switch fluorescence ratio of 1.06. With TGGACGTTTG the switch fluorescence ratio was 1.01. Work on TGGACTAGTG yielded a switch fluorescence ratio of 0.953. In the case of TGGAGACCCG, the switch fluorescence ratio is reported as 0.991. In the case of TGGAGAGGAG, the switch fluorescence ratio is reported as 0.966. With TGGAGGAGTT the switch fluorescence ratio was 1.05. TGGAGGATAG gave a switch fluorescence ratio of 1. Sequence TGGAGGCATA has a switch fluorescence ratio of 0.984. Work on TGGAGGGCGC yielded a switch fluorescence ratio of 0.959. In the case of TGGAGGGGTC, the switch fluorescence ratio is reported as 1.02. With TGGAGTTATT the switch fluorescence ratio was 1.01. TGGATAGCAA gave a switch fluorescence ratio of 1.35. For TGGATAGTCT, the switch fluorescence ratio was 1.09. In the case of TGGATATGCA, the switch fluorescence ratio is reported as 1.01. TGGATATGGA showed a switch fluorescence ratio of 0.985. TGGATATGGC gave a switch fluorescence ratio of 0.926. Sequence TGGATATTAT has a switch fluorescence ratio of 1.01. Work on TGGATCCCGG yielded a switch fluorescence ratio of 1.02. TGGATCCCGT showed a switch fluorescence ratio of 1.06. In the case of TGGATCCGAG, the switch fluorescence ratio is reported as 1.05. With TGGATGAGTT the switch fluorescence ratio was 0.998. Work on TGGATGTGGT yielded a switch fluorescence ratio of 1.02. TGGATTCGAG showed a switch fluorescence ratio of 0.978. TGGATTGAG gave a switch fluorescence ratio of 1.02. TGGATTGTCG was tested, and the switch fluorescence ratio was 1.11. Work on TGGCAACTGT yielded a switch fluorescence ratio of 1.01. Sequence TGGCAATGCA has a switch fluorescence ratio of 1.11. For TGGCACAAAC, the switch fluorescence ratio was 0.977. In the case of TGGCACCTAA, the switch fluorescence ratio is reported as 1.05. In the case of TGGCACGTAA, the switch fluorescence ratio is reported as 1.24. TGGCAGCCGA was tested, and the switch fluorescence ratio was 1.01. Work on TGGCATTAAC yielded a switch fluorescence ratio of 1.2. TGGCCGAAGT was tested, and the switch fluorescence ratio was 1.07. In the case of TGGCCTATTC, the switch fluorescence ratio is reported as 0.964. TGGCCTGATA showed a switch fluorescence ratio of 1.07. TGGCCTTTGG was tested, and the switch fluorescence ratio was 0.978. Sequence TGGCGAACGC has a switch fluorescence ratio of 0.996. Work on TGGCGAGTTG yielded a switch fluorescence ratio of 0.98. For TGGCGATACG, the switch fluorescence ratio was 1.15. With TGGCGATGGC the switch fluorescence ratio was 1. Sequence TGGCGCGTGC has a switch fluorescence ratio of 1.18. Work on TGGCGGCTGC yielded a switch fluorescence ratio of 1.01. In the case of TGGCGGTTCC, the switch fluorescence ratio is reported as 0.976. With TGGCGTAGCG the switch fluorescence ratio was 1.01. TGGCGTAGTC gave a switch fluorescence ratio of 1.22. Sequence TGGCGTCGA has a switch fluorescence ratio of 0.979. TGGCTACACT showed a switch fluorescence ratio of 0.983. TGGCTATAAT gave a switch fluorescence ratio of 1.06. TGGCTCATCG was tested, and the switch fluorescence ratio was 1. Sequence TGGCTCCGG has a switch fluorescence ratio of 1.03. For TGGCTGAGAC, the switch fluorescence ratio was 1.01. Work on TGGCTGGCTT yielded a switch fluorescence ratio of 1.02. TGGCTTAGAG was tested, and the switch fluorescence ratio was 0.962. TGGCTTGAAA gave a switch fluorescence ratio of 1.07. In the case of TGGCTTGTG, the switch fluorescence ratio is reported as 0.988. With TGGGAAAA the switch fluorescence ratio was 1.02. Work on TGGGAACCTG yielded a switch fluorescence ratio of 1.01. In the case of TGGGACAGAC, the switch fluorescence ratio is reported as 1.09. Sequence TGGGAGCAGA has a switch fluorescence ratio of 0.987. Work on TGGGATAGAC yielded a switch fluorescence ratio of 1.01. With TGGGATGTCT the switch fluorescence ratio was 1.04. For TGGGCCCAAC, the switch fluorescence ratio was 1.02. Work on TGGGCCCGCT yielded a switch fluorescence ratio of 1.03. TGGGCCCTAA was tested, and the switch fluorescence ratio was 1.01. Sequence TGGGCCGCAG has a switch fluorescence ratio of 1.11. For TGGGCCTTCT, the switch fluorescence ratio was 1.02. TGGGCGATGG showed a switch fluorescence ratio of 0.991. TGGGCGATTG was tested, and the switch fluorescence ratio was 1.01. TGGGCGGACG showed a switch fluorescence ratio of 1.02. TGGGCGTCTA showed a switch fluorescence ratio of 1.01. For TGGGGACAGG, the switch fluorescence ratio was 0.947. With TGGGGAGCCG the switch fluorescence ratio was 0.999. Work on TGGGGATGT yielded a switch fluorescence ratio of 1.02. TGGGGCGCGG showed a switch fluorescence ratio of 0.988. In the case of TGGGGGCAGA, the switch fluorescence ratio is reported as 1. TGGGGTCATC was tested, and the switch fluorescence ratio was 0.989. Work on TGGGGTGTGT yielded a switch fluorescence ratio of 1.01. For TGGGGTTCCG, the switch fluorescence ratio was 1.01. TGGGGTTTCT gave a switch fluorescence ratio of 1.01. Sequence TGGGTACGGG has a switch fluorescence ratio of 0.955. Work on TGGGTAGG yielded a switch fluorescence ratio of 1.04. Sequence TGGGTATCAC has a switch fluorescence ratio of 0.999. With TGGGTATGCA the switch fluorescence ratio was 0.976. Work on TGGGTGACAA yielded a switch fluorescence ratio of 1.02. For TGGGTGATAC, the switch fluorescence ratio was 1.33.
